# Publication PMC4336329 (PLoS ONE, 2015)
# In all, about 310,000 compounds went through this assay and about 2,200 (0.71%) showed an effect of 50% or more. The effect is printed as a negative number. This is one part of the list.
# Biological target: human ether-à-go-go-related gene (hERG) potassium channel (human, UniProt Q12809)
# Experiment: primary screen, population patch clamp on CHO cells stably expressing hERG
# human ether-à-go-go-related gene (hERG) potassium channel, sequence (Q12809 whole entry, looked up): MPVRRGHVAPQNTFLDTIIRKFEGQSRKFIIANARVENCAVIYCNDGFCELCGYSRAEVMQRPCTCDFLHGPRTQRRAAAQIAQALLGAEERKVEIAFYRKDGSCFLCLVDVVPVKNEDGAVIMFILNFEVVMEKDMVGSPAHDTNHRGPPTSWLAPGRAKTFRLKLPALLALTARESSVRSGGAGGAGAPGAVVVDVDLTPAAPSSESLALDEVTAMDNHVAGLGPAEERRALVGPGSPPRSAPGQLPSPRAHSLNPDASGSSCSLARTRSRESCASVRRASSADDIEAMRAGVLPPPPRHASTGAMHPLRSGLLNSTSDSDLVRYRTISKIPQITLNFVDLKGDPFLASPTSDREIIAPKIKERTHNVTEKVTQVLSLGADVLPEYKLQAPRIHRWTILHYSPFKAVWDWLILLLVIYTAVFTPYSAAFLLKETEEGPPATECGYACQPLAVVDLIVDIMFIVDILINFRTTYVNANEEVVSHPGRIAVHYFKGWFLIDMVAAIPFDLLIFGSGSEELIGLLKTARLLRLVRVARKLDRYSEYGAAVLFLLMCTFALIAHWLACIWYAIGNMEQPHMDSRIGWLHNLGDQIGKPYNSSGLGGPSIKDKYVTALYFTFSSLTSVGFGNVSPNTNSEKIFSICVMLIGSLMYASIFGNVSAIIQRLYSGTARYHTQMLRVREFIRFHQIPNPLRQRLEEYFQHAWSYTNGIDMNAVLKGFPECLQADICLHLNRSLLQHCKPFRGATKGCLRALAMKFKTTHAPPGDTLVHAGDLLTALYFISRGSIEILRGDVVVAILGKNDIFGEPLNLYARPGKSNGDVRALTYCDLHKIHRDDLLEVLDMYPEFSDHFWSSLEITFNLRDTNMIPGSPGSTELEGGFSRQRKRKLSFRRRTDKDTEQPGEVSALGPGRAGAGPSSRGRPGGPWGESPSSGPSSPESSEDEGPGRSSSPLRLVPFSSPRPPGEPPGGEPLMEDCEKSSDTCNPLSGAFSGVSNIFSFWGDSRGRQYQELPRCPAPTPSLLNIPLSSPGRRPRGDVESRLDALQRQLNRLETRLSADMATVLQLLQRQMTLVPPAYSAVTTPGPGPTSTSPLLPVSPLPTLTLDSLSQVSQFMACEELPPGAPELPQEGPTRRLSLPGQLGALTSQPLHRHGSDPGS
row,SMILES,"hERG current change (%, negative = inhibition) at 1uM [%]"
1,Cc1ccc(Cl)cc1NS(=O)(=O)c1ccc(-n2cccn2)cc1,10.1
2,CCN(C(=O)CSc1nc2ccccc2c(=O)n1CCOC)C1CCS(=O)(=O)C1 (centres unmarked),-0.208
3,C=C1c2cc(OC)ccc2NC(=O)N1CC,0.357
4,COc1ccc(C(=O)Nc2c(N)nc(SCC(=O)N3CCC(C)CC3)[nH]c2=O)cc1,7.9
5,Cc1ccc(S(=O)(=O)N2CCC(C(=O)NCCc3ccc(S(N)(=O)=O)cc3)CC2)cc1,10.7
6,CCC(=O)N1CCc2cc(Br)cc(S(=O)(=O)CCC(=O)NCCOC)c21,17
7,Cc1ccc(NC(=O)c2cccc(S(=O)(=O)NCc3ccccc3)c2)nc1,0.799
8,O=C(COc1ccc(Br)cc1)Nc1ccc(S(=O)(=O)Nc2ccccn2)cc1,-1.23
9,CCCOc1ccc2nc(C)c(CCC)c(SC(=N)N)c2c1.Cl,13.7
10,CC(OC(=O)CNC(=O)c1ccc2ccccc2c1)C(=O)NC1CCCCC1C (centres unmarked),6.58
11,CCOC(=O)c1[nH]c2ccc(Cl)cc2c1NC(=O)/C=C/c1ccc2c(c1)OCO2,2.8
12,Cc1cccc(C(=O)N2CCC(=O)N(C(COCc3cccc(C(F)(F)F)c3)Cc3ccccc3)CC2)c1 (centres unmarked),7.18
13,CCn1c2ccccc2c2cc(/C=N/n3c(C)nnc3C)ccc21,1.71
14,CN(C)c1ccc(CNC(=O)CN2C(=O)COc3ccc(S(=O)(=O)N4CCCC4)cc32)cc1,13.7
15,Cc1c(NS(=O)(=O)c2ccc3[nH]c(=O)[nH]c3c2)c(=O)n(-c2ccccc2)n1C,4.73
16,CCN1CCc2c(C#N)c(NCc3ccccc3)nc(NCCO)c2C1,-22.3
17,O=C(OCc1nc2ccccc2s1)c1ccc(Br)o1,13.7
18,O=C(CCC(=O)N1CCN(c2cccc(Cl)c2)CC1)c1cccs1,6.22
19,O=c1[nH]c2cccnc2n1Cc1ccco1,-0.139

row,SMILES,"hERG current change (%, negative = inhibition) at 1uM [%]"
1,CC(C)c1ccccc1NC(=O)COC(=O)Cc1cccc(C(F)(F)F)c1,11.2
2,CCN(C=NC1=NN(c2cccc(C(F)(F)F)c2)CC1)CC,-2.46
3,O=[N+]([O-])c1ccccc1OCCCN1CCOCC1,10.6
4,Cc1cccc(NC(=S)N2CCC(NC(=O)c3ccco3)CC2)c1,11.9
5,O=C(NCC(c1cccs1)N1CCOCC1)c1cn(-c2ccccc2)nc1-c1ccccc1 (centres unmarked),-0.149
6,CCOc1ccc(NC(=O)Cn2nnc(C(=O)NCCc3ccc(OC)c(OC)c3)c2N)cc1,4.63
7,CC(=O)/C(N=Nc1cc(C)ccc1O)=C(\C)O,10.6
8,CC1CCN(c2ccc(C(=O)O)cc2)CC1,9.84
9,COc1cc(NC(=O)c2ccccc2C)c(OC)cc1NC(=O)CN1CCOCC1,5.72
10,Cc1occc1C(=O)NC1CCCN(Cc2ccc(CC(C)C)cc2)C1 (centres unmarked),6.64
11,COc1cccc(OC)c1C(=O)NCCOc1cc(C)cc(C)c1,11.7
12,O=C(CSc1nnc(Cc2ccccc2)n1Cc1ccco1)NC12CC3CC(CC(C3)C1)C2,-7.14
13,Cn1c(/C=N/Nc2nc3ccccc3[nH]2)nc2ccccc21,6.83
14,CC(=O)OC[C@]12CCC(C)=C[C@H]1O[C@@H]1[C@H](O)[C@@H](OC(C)=O)[C@@]2(C)[C@]12CO2,6.99
15,O=C(CSc1ccc(-c2cccnc2)nn1)N1CCCc2ccccc21,0.142
16,Cc1ccc(OCCNC(=O)c2ccccc2N)cc1,12.1
17,O=C1NCCN1CCNS(=O)(=O)c1cc(C(F)(F)F)cc(C(F)(F)F)c1,13.2
18,CC1CC(C)CN(C(=O)/C(=C\c2ccccc2)c2ccccc2)C1 (centres unmarked),-4.52
19,CCOC(=O)c1[nH]c2c(c1-c1ccc(OC)cc1)C(=O)CC(c1ccc(OC)c(OC)c1)C2 (centres unmarked),1.47

row,SMILES,"hERG current change (%, negative = inhibition) at 1uM [%]"
1,O=C(CSCc1ccc(Cl)cc1)Nc1ccc(S(=O)(=O)N2CCCCCC2)cc1,9.01
2,CN1C=CC=C/C1=C1\SC(=S)N(N)C1=O,6
3,O=C(Nc1cccc(Cl)c1)NC1CC2CCC1C2 (centres unmarked),15.2
4,COC(=O)CC1(Cc2ccccc2)C(=O)NC(=O)NC1=O,18.4
5,CSc1ccc(-c2c(C#N)c(N)nc3c2c(C)nn3-c2ccccc2)cc1,5.53
6,COc1ccc(OCC(=O)Nc2ccccc2-c2ccccc2)cc1,13.3
7,COc1ccc(OCCN2CCOCC2)cc1,20.7
8,O=C(O)c1ccc(-n2nncc2-c2ccco2)cc1,14.1
9,CCn1c(=O)cc(OCC(=O)NCc2cccnc2)c2ccccc21,7.58
10,Cl.O=C(O)CCN1CCc2ccccc2C1c1cccs1 (centres unmarked),19.9
11,COC(C(=O)Nc1ccnn1C1CCN(Cc2ccc(Cl)s2)CC1)c1ccccc1 (centres unmarked),6.73
12,CCOc1nc(C)ccc1-c1noc(-c2cccnc2)n1,17.8
13,CN(C)c1ccc(C(=O)N2CCCC(CCC(=O)N3CCN(c4ccccn4)CC3)C2)cc1 (centres unmarked),13.8
14,COc1cccc(C2=NOC(C(=O)Nc3cccc(C(C)=O)c3)C2)c1OC (centres unmarked),3.22
15,CCC1CCCCN1CCCNC(=O)c1ccc(CS(=O)(=O)Cc2ccccc2F)o1 (centres unmarked),12.6
16,C/C(=C\C(=O)c1ccc(Cl)cc1)NCc1ccc2c(c1)OCO2,1.71
17,C[C@]12CC[C@@H]3c4cc(O)c(O)cc4CC[C@H]3[C@@H]1CC[C@@H]2O,24.1
18,Cc1cc(C)c(NC(=O)Cn2nnc(C(=O)NCc3ccco3)c2N)c(C)c1,11.9
